Measured values reported in the RNAGym collection of RNA variant scans (doi:10.1073/pnas.2313332121).
Variants at the floor of the assay are shown more often than the library holds them.

B1: TPR 5TU (parent)
chain: GGAUCUUCUCGAUCUAACAAAAAAGACAAAUCUGCCACAAAGCUUGAGAGCAUCUUCGGAUGCAGAGGCGGCAGCCUUCGGUGGCGCGAUAGCGCCAACGUUCUCAACUAUGACACGCAAAACGCGUGCUCCGUUGAAUGGAGUUUAUCAUG

Variants of: B1
Experiment: polymerase ribozyme fitness, log enrichment relative to wild type (log ratio); higher = more active; in vitro selection for triplet polymerase activity
Summary of the method: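 To select mutant libraries of each subunit of a heterodimeric triplet polymerase ribozyme, built by PCR and transcribed, each was annealed with a biotinylated primer, partner subunit and triplets, then incubated frozen at −7 °C. Extended constructs were gel-excised, captured on streptavidin beads and amplified by RT-PCR, in one round carried out in triplicate. Illumina sequencing of input and output libraries kept genotypes with ≥10 input reads and ≥1 read per output. Fitness is the base-2 logarithm of genotype enrichment relative to wild-type enrichment, from inverse-variance-weighted replicate averages.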

Variant | polymerase ribozyme fitness (log ratio)
GGAUCUUCUCGAUCUAACAAAAUAGACAAAUCUGCCACAAAGCUUGAGCGCAUCAUCGGAUGCAGAGGCGGCAGCCUUCGGUGGCGCGAUGGCGCCAACGUUCUCAACUAUGACACGCAAAACGCGUGCUCCGUUGAAAGGAGCUUAUCAUG [A23U A49C U55A A91G U139A U144C] | ≤ -4.2
GGAUCUUCUCGAUCUAACAAAAUAGACAAAUCUGCCACAACGCUUGAGAGCAUCUUCGGAUGCAGAGGCGGCAGCCUUCGGUGGCGCGAUAGCGCCAACGUUAUCAACUAUGACACGCAAAACGCGUGCUCCGUUGAAUGGAGUUUAUCAUG [A23U A41C C103A] | ≤ -4.2
GGAUCUUCUCGAUCUAACAAAAUAGACAACUCUGCCACAAAGCUUGAGAGCAUCAUCGGAUGCAGAGGCGGCAGCCUUCGGUGGGGCGAUAGCGCCAUCGUUCUCAACUAUGACACGCAAAACGCUUGCUCCGUUAAAUGGAGUUUAUCAUG [A23U A30C U55A C85G A98U G126U G136A] | ≤ -4.2
GGAUCUUCUCGAUCUAACAAAAUAGACUAAUCUGCCAUAAAGCUAGAGAGCAUCUUCGGAUGCCGAGGCGGCAGCCUUCGGUGGGGCGAUAGCGCCAACGUUCUCAACUAUGACACGCAAAACGCGUGCUCCGUUGAAUGGAGUUUAUCAUG [A23U A28U C38U U45A A64C C85G] | ≤ -4.2
GGAUCUUCUCGAUCUAACAAAAUAGACAAAUCUGCCACAUAGCUUGAGAGCAUCUUCGGAUGCAGAGGCGGCAGCCUUCGGUAGCGCGAUAGCGCCAACGUUCUCAACUAUGACACGCAAAAUGCGUGCUCCGUUGAAUGGAGUUUUUCAUG [A23U A40U G83A C123U A147U] | ≤ -4.2
GGAUCUUCUCGAUCUAACAAAAUAGACCAAUCUGCCACAAAGCUUGAGAGCAUAUUCGGAUGCAGAGGCGGCAGGCUUCGGUGGCGCGAUGGCGCCAACGUUCUCAACUCUGACACGCAAAACGCGUGCUCCGUUGAAUGGAGUUUAUCAUG [A23U A28C C54A C75G A91G A110C] | ≤ -4.2
GGAUCUUCUCGAUCUAACAAAAUAGACAGAUCUGCCACAAAACUUGAGAGCAUCUUCGGAUGCAGAGGCGGCAGCCUUCGGUGGCGCGAUAGCGCCAUCGUACUCAACUAUGACACGCAAAACGCGUGCUCCGUUGAAUGGAGUGUAUCAUG [A23U A29G G42A A98U U102A U145G] | ≤ -4.2
GGAUCUUCUCGAUCUAACAAAAUAGACAAAUCUGCCACAAAGCUUGCGAGCAUCGUCGGAUGCAGAGGCGGCAGCCUUCGGUGGCUCGACAGCGCCAACGUUCUCAACUAUGACACGCAAAACGCGUGCUCCGUUGAAUGGAGUUUAUCAUG [A23U A47C U55G G86U U90C] | ≤ -4.2
GGAUCUUCUCGAUCUAACAAAAUAGACCAAUCUGCCACAAAGCAUGAGAGCAUCUUCGGAUGCAGAGGCGGCAGCCUGCGGUGGCGGGAUAGCGCCAACGUUCUCAACUAUGACACGCAAAACGCGUGCUCCGUUGAAUGUAGUUUAUCAUG [A23U A28C U44A U78G C87G G141U] | ≤ -4.2
GGAUCUUCUCGAUCUAACAAAAUAGACAAAUUUGCCACAAAGUUUGAGAGCAUCUUAGGCUGCAGAAGCGGCAGCCUUCGGUGGCGCGAUACCGCCAACGUUCUAAACUAUGCCACGCAAAACGCGUGCUCCGUUGAAUGGAGUUUAUCAUG [A23U C32U C43U C57A A60C G67A G92C C105A A113C] | ≤ -4.2
GGAUCUUCUCGAUCUAACAAAAUAGACAAAUCUGCCGCAAAGCUUGAGAGCAUCUUCGGAUGCAGAGGUGGCAGCCUUCGGUGGCGCGAUAGCGCCAACGUUCUCAACUAUGACACGCAAAACGCGUGCUCCGUUGAAAGGAGUUUAUCAUG [A23U A37G C69U U139A] | ≤ -4.2
GGAUCUUCUCGAUCUAACAAAAUAGACAAAUCUGCCACACAGCUUGAGAGCAUCUUCUGCUGCAGAGGCGGCAGCAUUCGGUAGCGCGAUAGCGCCAACGUUCUUAACUAUGACACGCAAAACGCGUGCUCCGUUGAAUGCAGUUGAUCAUG [A23U A40C G58U A60C C76A G83A C105U G141C U146G] | ≤ -4.2
GGAUCUUCUCGAUCUAACAAAAUAGACAAAUCUGCCACAAAGCUUGGGAGCAUCUUCGGAUGCAGAGGCGGCAGCCUUCGGUGGCGCGAAAGCGUCAACGUUCUCAACUAUGACCCGCAAAACGCGUGCUCCGUUGAAUAGAGUUUAUGAUG [A23U A47G U90A C95U A115C G140A C149G] | ≤ -4.2
GGAUCUUCUCGAUCUAACAAAAUAGACAAAUCUGCCACAAAGCUUGAGAGCAUCUUCGGGUGCAGAGGCGGCAGCCUUCGAUUGCGCGAUAGCGCCAACGUUCUCAACUAUGACACGCAAAACGCGUGCUCCGUUGAAUGGAGUUUAUCAUG [A23U A60G G81A G83U] | ≤ -4.2
GGAUCUUCUCGAUCUAACAAAAUAGACAAAUCUGCCACAAAGCUUGAGAGCAUCUUCGGAUGCAGAGGCGGCAGCCUUCGGUGGCGCGAUAGCGCCAACGUUCUCAACUAUGCCACGCAAAACGCGUGCUCCGGUGAAUGGAGUUUAUCAUG [A23U A113C U134G] | ≤ -4.2
GGAUCUUCUCGAUCUAACAAAAUAGACACAUCUGCCACAAAGCUUGAGAGCAUCUUCGGAUGCAGAGGCGGCAGCCUUCGGUGGGGCGAUAGCGCCAACGUUCUCAACUGUUACACGCAAAACGCGUGCUCCGUUGAAUGGAGUUUAUCAUG [A23U A29C C85G A110G G112U] | ≤ -4.2
GGAUCUUCUCGAUCUAACAAAAUAGACAGAUCUGCCACAAAGCUUGAGAGCAUCUUCGGAUGCAGAGGCGGCAGCCUUCGGUGUCGCGAUAGCGCCAACGUUCUCAACUAUGACACGCAAAACGCGUGCUCCGUUGAAUGGAGUUUAUCAUG [A23U A29G G84U] | ≤ -4.2
GGAUCUUCUCGAUCUAACAAAAUAGACAAAUCUGCCACAAAGCUUGAGAGCGUCUUCGGAUGCAGAGGCGGCAGCUUUAGGUGGCGCGAUAGCGCCAACGUUAUCAACUAUGACACGCAAAACGCGUGCUCCGUUGAAUGGAGUUUAUCAUG [A23U A52G C76U C79A C103A] | ≤ -4.2
GGAUCUUCUCGAUCUAACAAAAUAGACAAAUCUGCCGCAAAGCUUGAGAGCAUCUUCGGAUGCAGAGGCGGCAGCCUUCGGUGGCGCGAUAGCGUCAACGUUCUCAACUAUGACACGCAAAACGCGUGCUCCGUUGAAUGGAGUUUAUCAUG [A23U A37G C95U] | ≤ -4.2
